In the supplement of paper PMC4604168 (melanoma cell lines):
This is one part of the list. Single values are uncertain, as repeats are few or missing.

How the values were obtained:
Experiment in all cases: cell count relative to DMSO control; melanoma cells; higher = more viable cells
Settings in all cases: library dose: standard library concentration; 72 h
G361 = test system: G361
IPC-298 = test system: IPC-298
IST-MEL1 = test system: IST-MEL1
LB2518-MEL = test system: LB2518-MEL
LOXIMVI = test system: LOXIMVI
MEL-HO = test system: MEL-HO
MZ2-MEL = test system: MZ2-MEL
MeWo = test system: MeWo
RPMI7951 = test system: RPMI7951
RVH-421 = test system: RVH-421
SkMel28 = test system: SkMel28
SkMel2 = test system: SkMel2
SkMel30 = test system: SkMel30
SkMel5 = test system: SkMel5
UACC257 = test system: UACC257
UACC62 = test system: UACC62
WM115 = test system: WM115
WM1716 = test system: WM1716
WM1745 = test system: WM1745
WM3526 = test system: WM3526
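Also: cells treated in 1,536-well plates, then fixed and DAPI-stained, with nuclei counted from automated high-throughput microscope images.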

| Structure (SMILES) | cell count (G361) [%] | cell count (IPC-298) [%] | cell count (IST-MEL1) [%] | cell count (LB2518-MEL) [%] | cell count (LOXIMVI) [%] | cell count (MEL-HO) [%] | cell count (MZ2-MEL) [%] | cell count (MeWo) [%] | cell count (RPMI7951) [%] | cell count (RVH-421) [%] | cell count (SkMel28) [%] | cell count (SkMel2) [%] | cell count (SkMel30) [%] | cell count (SkMel5) [%] | cell count (UACC257) [%] | cell count (UACC62) [%] | cell count (WM115) [%] | cell count (WM1716) [%] | cell count (WM1745) [%] | cell count (WM3526) [%] |
| --- | --- | --- | --- | --- | --- | --- | --- | --- | --- | --- | --- | --- | --- | --- | --- | --- | --- | --- | --- | --- |
| C[As](C)SC[C@H](NC(=O)CC[C@H](N)C(=O)O)C(=O)NCC(=O)O [Darinaparsin] + OCCn1cc(-c2cnc3nnn(Cc4ccc5ncccc5c4)c3n2)cn1 [PF04217903] (first compound 2 µM, partner dose 5 µM) | 70.6 | 104 | 88.2 | 94.8 | 71.3 | 99.6 | 113 | 76.7 | 67 | 80.6 | 101 | 85.2 | 83.9 | 74.1 | 82.3 | 74.7 | 61.1 | 61.5 | 92.8 | 77.5 |
| N.N.[Cl][Pt][Cl] [cisplatin] + C[As](C)SC[C@H](NC(=O)CC[C@H](N)C(=O)O)C(=O)NCC(=O)O [Darinaparsin] (first compound 8 µM, partner dose 2 µM) | 89.1 | 90.2 | 92.5 | 82.2 | 78.5 | 88.9 | 83.3 | 92.2 | 105 | 75.2 | 70.2 | 79 | 92.2 | 109 | 91.5 | 85.6 | 101 | 107 | 95.2 | 84.1 |
| Cn1cc(C2=C(c3cn(C4CCN(Cc5ccccn5)CC4)c4ccccc34)C(=O)NC2=O)c2ccccc21 [Enzastaurin] + CS(=O)(=O)c1ccc(C(=O)Nc2ccc(Cl)c(-c3ccccn3)c2)c(Cl)c1 [vismodegib] (first compound 4 µM, partner dose 5 µM) | 73.2 | 86 | 83.7 | 69 | 118 | 105 | 94.9 | 91.5 | 41.9 | 76.5 | 94.8 | 57.1 | 88.9 | 99.7 | 103 | 102 | 123 | 97.3 | 76.8 | 82.5 |
| Cn1cc(C2=C(c3cn(C4CCN(Cc5ccccn5)CC4)c4ccccc34)C(=O)NC2=O)c2ccccc21 [Enzastaurin] + COc1ccc(C2=N[C@@H](c3ccc(Cl)cc3)[C@@H](c3ccc(Cl)cc3)N2C(=O)N2CCNC(=O)C2)c(OC(C)C)c1 [Nutlin-3] (first compound 4 µM, partner dose 0.5 µM) | 69.6 | 114 | 120 | 71.2 | 101 | 121 | 114 | 106 | 72.4 | 60.7 | 37.1 | 120 | 107 | 84.2 | 80.4 | 54.6 | 106 | 77.7 | 77.8 | 99.1 |
| Cn1cc(C2=C(c3cn(C4CCN(Cc5ccccn5)CC4)c4ccccc34)C(=O)NC2=O)c2ccccc21 [Enzastaurin] + CC(=O)c1c(C)c2cnc(Nc3ccc(N4CCNCC4)cn3)nc2n(C2CCCC2)c1=O [palbociclib] (first compound 4 µM, partner dose 0.2 µM) | 51 | 75.9 | 73.4 | 41.3 | 92 | 99.6 | 77.2 | 47.5 | 45.1 | 39.5 | 48.6 | 67 | 68.8 | 45.1 | 47.9 | 50.4 | 64.9 | 49.8 | 35.7 | 50.9 |
| C[C@]12O[C@H](C[C@]1(O)CO)n1c3ccccc3c3c4c(c5c6ccccc6n2c5c31)CNC4=O [Lestaurtinib] + CS(=O)(=O)c1ccc(C(=O)Nc2ccc(Cl)c(-c3ccccn3)c2)c(Cl)c1 [vismodegib] (first compound 0.02 µM, partner dose 5 µM) | 76.9 | 79 | 106 | 79.4 | 93.7 | 78.2 | 129 | 79.5 | 108 | 96.6 | 95.7 | 119 | 85.8 | 68.1 | 89 | 76 | 79.2 | 95.5 | 97.2 | 71.3 |
| C[C@]12O[C@H](C[C@]1(O)CO)n1c3ccccc3c3c4c(c5c6ccccc6n2c5c31)CNC4=O [Lestaurtinib] + Cc1ccc(NC(=O)c2cccc(N(C)C)c2)cc1NC(=O)c1ccc(O)cc1 [ZM336372] (first compound 0.02 µM, partner dose 10 µM) | 69.1 | 65 | 93.9 | 41.2 | 81.7 | 82.1 | 87.6 | 82.2 | 82.8 | 79.3 | 59.9 | 59.7 | 78.4 | 60.4 | 69.2 | 82.5 | 72.3 | 117 | 79.8 | 63.3 |
| N.N.[Cl][Pt][Cl] [cisplatin] + NC(=O)Nc1cc(-c2cccc(F)c2)sc1C(=O)N[C@H]1CCCNC1 [AZD7762] (first compound 8 µM, partner dose 0.1 µM) | 75.6 | 87.5 | 75.2 | 69.3 | 62.2 | 83.6 | 97.7 | 63.4 | 27.2 | 90.2 | 36 | 80.1 | 79.8 | 64.1 | 87.5 | 61.6 | 49 | 57.8 | 63.3 | 49.2 |
